The values below come from the supplement of paper PMC10037445.

The subject of assay [1] is RAW-Dual. The experiment in a line: NF-kB SEAP reporter activity, fold change vs agonist alone; higher = enhanced NF-kB activity. Conditions: library stock concentration (final ~1000-fold dilution): 10 mM, cytotoxicity flag (confluency mask): not cytotoxic. In a few lines: (§1)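 Cytotoxic wells were those whose IncuCyte confluency was below 70% of agonist controls in both mask sets. The cells were RAW-Dual macrophages at 50,000 cells/well in DMEM on 384-well plates, dosed with 50 nL of library stock by pin tool, stimulated with a PRR agonist 1 h later, and kept at 37 °C, 5% CO2 for 20 hours. IRF and NF-κB reporter activity, as fold change over agonist-alone wells, came from supernatant read by QuantiLuc luminescence and QuantiBlue absorbance, respectively.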

The test system of assay [2] is RAW-Dual. The experiment in a line: NF-kB SEAP reporter activity, fold change vs agonist alone; cytotoxicity flag (confluency mask): not cytotoxic; higher = enhanced NF-kB activity. The procedure, abridged: as §1
Setting [3] is: agonist: ODN 1826 (TLR9) 0.5 ug/mL.
[4] abbreviates: agonist: Pam2CSK4 (TLR2/6) 0.1 ug/mL.
Where [5] appears, read: agonist: Pam3CSK4 (TLR2/1) 0.1 ug/mL.

Whole data set: some 2,900 compounds, median “NF-kB SEAP reporter activity, fold change vs agonist alone” near 0.99, cut for the highest 2% near 2.6. Some of the results follow.

In the case of `CN(C)CCOC(C)(c1ccccc1)c1ccccn1.O=C(O)CCC(=O)O` (stereo not drawn), the figures for the “NF-kB SEAP reporter activity” value with RAW-Dual [1] (agonist: Imiquimod (TLR7) […]) and in the assay with RAW-Dual [1] (agonist: MPLA (TLR4) […]) were 0.903 and 1.02, respectively.

Regarding `CN(C)CCOC(C)(c1ccccc1)c1ccccn1.O=C(O)CCC(=O)O` (stereo not drawn) (library stock concentration (final ~1000-fold dilution): 10 mM), the “NF-kB SEAP reporter activity” value with RAW-Dual [2] (agonist: LPS (TLR4) 0.1 ug/mL) turned out to be 0.998; in the assay on RAW-Dual [2] (setting [3]) it was 0.838; in the assay with RAW-Dual [2] (setting [4]), 0.951; with RAW-Dual [2] (setting [5]), 1.03.

Consider `Cc1ccccc1OCC(O)CO` (stereo not drawn), for which the “NF-kB SEAP reporter activity” value in the assay with RAW-Dual [1] (agonist: MPLA (TLR4) […]) was 1.05.

Consider `Cc1ccccc1OCC(O)CO` (stereo not drawn) (library stock concentration (final ~1000-fold dilution): 10 mM), for which the “NF-kB SEAP reporter activity” value in the assay with RAW-Dual [2] (agonist: LPS (TLR4) 0.1 ug/mL) worked out at 1.03; with RAW-Dual [2] (setting [3]) it was 0.992; with RAW-Dual [2] (setting [4]), 0.999; in the assay on RAW-Dual [2] (setting [5]) it was 0.962.

For `O=C1CN(/N=C/c2ccc([N+](=O)[O-])o2)C(=O)N1`, the “NF-kB SEAP reporter activity” value amounted to 0.924 in the assay on RAW-Dual [1] (agonist: Imiquimod (TLR7) […]) and 0.948 in the assay with RAW-Dual [1] (agonist: MPLA (TLR4) […]).

As for `O=C1CN(/N=C/c2ccc([N+](=O)[O-])o2)C(=O)N1` (library stock concentration (final ~1000-fold dilution): 10 mM), the “NF-kB SEAP reporter activity” value is 1.09 in the assay on RAW-Dual [2] (agonist: LPS (TLR4) 0.1 ug/mL), 0.855 with RAW-Dual [2] (setting [3]), 1.1 in the assay on RAW-Dual [2] (setting [4]) and 1.11 with RAW-Dual [2] (setting [5]).

For the compound `Cl.O=C(c1ccc(OCCN2CCCCC2)cc1)c1c(-c2ccc(O)cc2)sc2cc(O)ccc12`, the “NF-kB SEAP reporter activity” value with RAW-Dual [1] (agonist: Imiquimod (TLR7) […]) worked out at 2.49; with RAW-Dual [1] (agonist: MPLA (TLR4) […]) it was 2.15.

Turning to `Cl.O=C(c1ccc(OCCN2CCCCC2)cc1)c1c(-c2ccc(O)cc2)sc2cc(O)ccc12` (library stock concentration (final ~1000-fold dilution): 10 mM), the “NF-kB SEAP reporter activity” value worked out at 1.25 in the assay on RAW-Dual [2] (agonist: LPS (TLR4) 0.1 ug/mL), 0.301 in the assay with RAW-Dual [2] (setting [3]), 0.86 in the assay on RAW-Dual [2] (setting [4]) and 1.98 with RAW-Dual [2] (setting [5]).

As for `CC(C)N1CCN(Cc2cnc(-c3cc(-c4cccc5[nH]ccc45)cc4[nH]ncc34)o2)CC1` (library stock concentration (final ~1000-fold dilution): 10 mM), the “NF-kB SEAP reporter activity” value in the assay with RAW-Dual [2] (agonist: LPS (TLR4) 0.1 ug/mL) was found to be 4.66.

With `CN1C(=O)C(NC(=O)c2cc(Cc3ccccc3)on2)COc2ccccc21` (stereo not drawn) (library stock concentration (final ~1000-fold dilution): 10 mM), the “NF-kB SEAP reporter activity” value in the assay on RAW-Dual [2] (agonist: LPS (TLR4) 0.1 ug/mL) stood at 1.18; with RAW-Dual [2] (setting [3]), 0.843; in the assay with RAW-Dual [2] (setting [4]), 0.992; with RAW-Dual [2] (setting [5]), 1.14.

Consider `CN1C(=O)C(NC(=O)c2cc(Cc3ccccc3)on2)COc2ccccc21` (stereo not drawn), for which the “NF-kB SEAP reporter activity” value is 0.926 in the assay on RAW-Dual [1] (agonist: Imiquimod (TLR7) […]) and 1.06 in the assay with RAW-Dual [1] (agonist: MPLA (TLR4) […]).

As to `O=C1OC(=O)C2C3CCC(O3)C12` (stereo not drawn) (library stock concentration (final ~1000-fold dilution): 10 mM), the “NF-kB SEAP reporter activity” value came to 3.23 in the assay on RAW-Dual [2] (agonist: LPS (TLR4) 0.1 ug/mL), 2 in the assay with RAW-Dual [2] (setting [3]), 1.84 in the assay with RAW-Dual [2] (setting [4]) and 1.76 in the assay on RAW-Dual [2] (setting [5]).

Consider `O=C1OC(=O)C2C3CCC(O3)C12` (stereo not drawn), for which the results for the “NF-kB SEAP reporter activity” value in the assay with RAW-Dual [1] (agonist: Imiquimod (TLR7) […]) and in the assay with RAW-Dual [1] (agonist: MPLA (TLR4) […]) were 1.93 and 2.03, respectively.

`CCOC(=O)n1ccn(C)c1=S`: the “NF-kB SEAP reporter activity” value in the assay with RAW-Dual [1] (agonist: Imiquimod (TLR7) […]) amounted to 0.978; in the assay with RAW-Dual [1] (agonist: MPLA (TLR4) […]), 1.03.

As for `CCOC(=O)n1ccn(C)c1=S` (library stock concentration (final ~1000-fold dilution): 10 mM), the “NF-kB SEAP reporter activity” value with RAW-Dual [2] (agonist: LPS (TLR4) 0.1 ug/mL) amounted to 0.918; in the assay with RAW-Dual [2] (setting [3]) it was 0.932; in the assay with RAW-Dual [2] (setting [4]), 0.935; in the assay with RAW-Dual [2] (setting [5]), 1.05.

As for `Cc1c[nH]c(-c2cnc(NCCNc3ccc(C#N)cn3)nc2-c2ccc(Cl)cc2Cl)n1.Cl`, the entries for the “NF-kB SEAP reporter activity” value in the assay on RAW-Dual [1] (agonist: Imiquimod (TLR7) […]) and in the assay with RAW-Dual [1] (agonist: MPLA (TLR4) […]) were 2.27 and 2.2, respectively.

Consider `Cc1c[nH]c(-c2cnc(NCCNc3ccc(C#N)cn3)nc2-c2ccc(Cl)cc2Cl)n1.Cl` (library stock concentration (final ~1000-fold dilution): 10 mM), for which the “NF-kB SEAP reporter activity” value was 2.97 with RAW-Dual [2] (agonist: LPS (TLR4) 0.1 ug/mL), 2.78 in the assay with RAW-Dual [2] (setting [3]), 1.84 with RAW-Dual [2] (setting [4]) and 3.48 in the assay on RAW-Dual [2] (setting [5]).
